These results are taken from PMC4973362.

The chains behind the UniProt entries cited, without tags or fusion partners.
UniProt Q96SW2: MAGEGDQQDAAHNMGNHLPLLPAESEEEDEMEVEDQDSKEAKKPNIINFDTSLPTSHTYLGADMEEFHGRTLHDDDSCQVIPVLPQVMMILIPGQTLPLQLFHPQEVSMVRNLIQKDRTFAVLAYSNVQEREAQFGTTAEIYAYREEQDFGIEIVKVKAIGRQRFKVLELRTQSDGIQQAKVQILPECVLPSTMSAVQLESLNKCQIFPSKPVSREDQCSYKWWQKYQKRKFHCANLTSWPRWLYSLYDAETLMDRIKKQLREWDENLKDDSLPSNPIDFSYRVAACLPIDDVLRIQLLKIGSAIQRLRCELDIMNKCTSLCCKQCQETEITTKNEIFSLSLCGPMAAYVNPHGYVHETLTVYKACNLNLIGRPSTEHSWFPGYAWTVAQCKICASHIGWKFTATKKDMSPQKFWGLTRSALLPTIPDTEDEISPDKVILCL

No constants are given. Whether binding was seen depends on the method and setting. Binding seen in cells or lysates may run through a third protein. Some binding calls cover weakened binding; strength is not graded here. Where a sequence is shown, tags or fusion partners need not be part of it.

One assay addresses T1, Myc-TAK1 1-500 (UniProt O43318).
T1 sequence: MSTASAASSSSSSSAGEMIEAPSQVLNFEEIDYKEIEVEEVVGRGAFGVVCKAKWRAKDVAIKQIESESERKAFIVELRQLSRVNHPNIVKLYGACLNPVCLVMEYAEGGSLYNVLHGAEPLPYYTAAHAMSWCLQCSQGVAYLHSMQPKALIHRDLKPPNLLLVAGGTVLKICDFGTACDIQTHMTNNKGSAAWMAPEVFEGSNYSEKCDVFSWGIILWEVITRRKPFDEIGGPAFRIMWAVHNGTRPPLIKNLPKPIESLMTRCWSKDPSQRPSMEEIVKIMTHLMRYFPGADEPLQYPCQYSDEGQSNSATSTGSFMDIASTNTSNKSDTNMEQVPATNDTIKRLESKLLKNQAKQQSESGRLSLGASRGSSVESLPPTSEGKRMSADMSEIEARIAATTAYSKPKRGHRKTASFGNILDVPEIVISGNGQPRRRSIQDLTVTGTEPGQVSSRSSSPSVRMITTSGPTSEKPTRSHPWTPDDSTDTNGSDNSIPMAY
In words: co-IP; HEK293T cells co-transfected, extracted 38 h after transfection; immunoprecipitated with anti-Myc antibody, immunoblotted with anti-Flag or anti-Myc (Figure 3e-g). (In general: In western blotting, separated proteins are transferred to a membrane and probed.)

Assay [1] addresses T2, Myc-tagged TAK1 wild type (UniProt O43318).
T2 sequence: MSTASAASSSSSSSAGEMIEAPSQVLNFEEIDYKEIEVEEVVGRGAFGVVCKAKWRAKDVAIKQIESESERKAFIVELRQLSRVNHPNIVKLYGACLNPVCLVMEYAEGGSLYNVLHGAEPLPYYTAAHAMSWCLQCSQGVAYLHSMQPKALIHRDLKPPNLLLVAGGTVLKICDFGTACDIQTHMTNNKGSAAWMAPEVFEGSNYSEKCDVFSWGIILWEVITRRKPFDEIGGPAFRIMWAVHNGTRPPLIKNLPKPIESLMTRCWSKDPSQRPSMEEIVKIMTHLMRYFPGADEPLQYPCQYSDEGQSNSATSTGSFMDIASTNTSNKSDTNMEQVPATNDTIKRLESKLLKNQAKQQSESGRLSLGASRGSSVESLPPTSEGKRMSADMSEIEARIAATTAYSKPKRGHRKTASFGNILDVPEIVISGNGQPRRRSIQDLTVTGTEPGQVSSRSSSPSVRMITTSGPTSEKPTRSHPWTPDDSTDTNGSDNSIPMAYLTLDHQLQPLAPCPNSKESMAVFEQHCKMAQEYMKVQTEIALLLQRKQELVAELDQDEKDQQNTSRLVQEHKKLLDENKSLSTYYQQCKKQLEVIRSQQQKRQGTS
Described as above.

A further assay has as its target T3, Myc-TAK1 1-300 (UniProt O43318).
T3 sequence: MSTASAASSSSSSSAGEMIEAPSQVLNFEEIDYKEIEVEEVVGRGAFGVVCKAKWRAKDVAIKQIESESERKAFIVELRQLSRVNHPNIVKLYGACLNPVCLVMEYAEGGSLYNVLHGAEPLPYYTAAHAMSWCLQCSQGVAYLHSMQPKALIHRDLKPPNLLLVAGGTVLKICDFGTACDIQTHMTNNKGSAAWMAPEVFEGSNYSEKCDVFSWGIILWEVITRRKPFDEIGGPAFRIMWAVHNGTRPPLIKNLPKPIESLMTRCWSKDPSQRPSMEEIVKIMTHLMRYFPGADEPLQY
Described as above.

The target in the next assay is T4, Myc-TAK1 1-400 (UniProt O43318).
T4 sequence: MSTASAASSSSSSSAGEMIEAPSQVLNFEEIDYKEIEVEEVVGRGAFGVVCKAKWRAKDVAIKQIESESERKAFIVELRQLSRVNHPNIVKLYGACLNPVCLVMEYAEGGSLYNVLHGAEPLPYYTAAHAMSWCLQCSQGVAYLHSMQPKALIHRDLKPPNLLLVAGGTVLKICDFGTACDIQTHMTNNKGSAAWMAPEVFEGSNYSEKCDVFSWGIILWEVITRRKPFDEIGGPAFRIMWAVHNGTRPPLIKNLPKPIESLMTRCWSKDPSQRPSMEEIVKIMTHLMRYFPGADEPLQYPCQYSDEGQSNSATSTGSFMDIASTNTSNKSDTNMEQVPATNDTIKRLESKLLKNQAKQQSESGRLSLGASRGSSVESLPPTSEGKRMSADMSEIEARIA
The assay is described as above.

Another assay concerns the target T5, Myc-TAK1 1-200 (UniProt O43318).
T5 sequence: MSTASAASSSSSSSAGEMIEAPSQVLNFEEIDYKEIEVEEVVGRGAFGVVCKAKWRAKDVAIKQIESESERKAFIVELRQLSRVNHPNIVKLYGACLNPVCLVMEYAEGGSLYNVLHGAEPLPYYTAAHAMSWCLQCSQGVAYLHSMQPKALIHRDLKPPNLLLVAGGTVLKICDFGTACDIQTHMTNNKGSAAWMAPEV
The assay is described as above.

In another assay the target is T6, Flag-TRAF6 260-522 (UniProt Q9Y4K3).
T6 sequence: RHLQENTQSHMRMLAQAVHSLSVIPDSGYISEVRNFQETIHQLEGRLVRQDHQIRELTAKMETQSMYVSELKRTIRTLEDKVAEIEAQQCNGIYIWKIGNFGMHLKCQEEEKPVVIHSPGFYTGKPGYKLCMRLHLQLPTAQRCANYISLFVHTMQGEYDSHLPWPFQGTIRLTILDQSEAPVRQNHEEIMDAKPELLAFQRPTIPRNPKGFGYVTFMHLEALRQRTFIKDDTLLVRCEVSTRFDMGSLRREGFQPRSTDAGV
In words: co-IP; HEK293T cells co-transfected, extracted 38 h after transfection; immunoprecipitated with anti-Flag antibody, immunoblotted with anti-Flag or anti-HA.

Another assay addresses T7, Flag-TRAF6 349-522 (UniProt Q9Y4K3).
T7 sequence: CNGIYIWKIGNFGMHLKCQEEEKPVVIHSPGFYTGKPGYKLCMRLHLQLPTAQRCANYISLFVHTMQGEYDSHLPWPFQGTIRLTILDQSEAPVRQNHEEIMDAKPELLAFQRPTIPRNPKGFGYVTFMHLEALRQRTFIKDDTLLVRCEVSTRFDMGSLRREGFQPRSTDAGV
The assay is described as above.

The target in a further assay is T8, Flag-TRAF6 110-522 (UniProt Q9Y4K3).
T8 sequence: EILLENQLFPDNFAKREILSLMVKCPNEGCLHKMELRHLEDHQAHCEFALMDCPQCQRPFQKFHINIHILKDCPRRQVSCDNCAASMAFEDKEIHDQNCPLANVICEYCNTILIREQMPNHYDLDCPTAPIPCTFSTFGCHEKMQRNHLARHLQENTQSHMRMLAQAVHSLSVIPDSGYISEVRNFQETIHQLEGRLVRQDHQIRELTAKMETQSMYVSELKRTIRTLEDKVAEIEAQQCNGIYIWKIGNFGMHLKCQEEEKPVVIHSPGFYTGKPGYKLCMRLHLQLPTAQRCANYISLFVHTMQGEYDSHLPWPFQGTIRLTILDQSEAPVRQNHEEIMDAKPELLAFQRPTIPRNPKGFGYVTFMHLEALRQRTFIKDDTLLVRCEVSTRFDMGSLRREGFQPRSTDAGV
The description is as above.

The target of assay [2] is T9, Flag-tagged TAB1 (TAK1-binding protein 1) (UniProt Q15750).
T9 sequence: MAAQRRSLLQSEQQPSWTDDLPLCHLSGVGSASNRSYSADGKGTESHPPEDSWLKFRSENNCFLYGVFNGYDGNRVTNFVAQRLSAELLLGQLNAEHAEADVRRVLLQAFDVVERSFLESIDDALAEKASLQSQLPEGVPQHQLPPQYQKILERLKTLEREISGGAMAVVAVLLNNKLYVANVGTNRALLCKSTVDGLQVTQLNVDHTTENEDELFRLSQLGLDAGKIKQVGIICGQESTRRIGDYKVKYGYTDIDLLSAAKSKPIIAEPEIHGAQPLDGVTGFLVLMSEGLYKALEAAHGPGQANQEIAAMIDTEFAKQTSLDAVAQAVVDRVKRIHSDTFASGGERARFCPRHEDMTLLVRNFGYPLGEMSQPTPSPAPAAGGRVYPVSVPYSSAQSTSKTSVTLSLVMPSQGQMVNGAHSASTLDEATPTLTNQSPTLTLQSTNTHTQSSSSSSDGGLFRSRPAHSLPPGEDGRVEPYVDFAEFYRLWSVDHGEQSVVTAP
The assay is described as above.

Assay [3] addresses T10, Flag-tagged TAK1 (transforming growth factor-beta-activated kinase 1) (UniProt O43318).
T10 sequence: T2 sequence
Described as above.

In assay [4] the target is T2, Myc-tagged TAK1 wild type. In words: co-IP; HEK293T cells co-transfected with Myc-TAK1 and Flag-TAB1 or Flag-TAB2 in the presence or absence of different concentrations of HA-CRBN, extracted 38 h after transfection; immunoprecipitated with anti-Myc, immunoblotted with anti-Flag, anti-HA or anti-Myc (Figure 3i,j).

For the substance “Flag-tagged CRBN (Cereblon) (from UniProt Q96SW2 1-442)”, the binding entry in the assay with Myc-TAK1 1-500 is on record as “binds”; in [1], “binds”; with Myc-TAK1 1-300, “no binding”; in the assay with Myc-TAK1 1-400 it was “binds”; with Myc-TAK1 1-200 it was “no binding”.
Regarding “HA-tagged CRBN (Cereblon) (from UniProt Q96SW2 1-442)”, the binding result is recorded as “no binding” in the assay with Flag-TRAF6 260-522; “no binding” in the assay with Flag-TRAF6 349-522; “binds” in the assay with Flag-TRAF6 110-522; “no binding” in [2]; “binds” in assay [3]; “binds” in [4].
